Hit rate of the full screen: of about 310,000 compounds, about 2,200 (0.71%) showed an effect of 50% or more. The effect is printed as a negative number. This is one part of the list.

For the assay, the target named is human ether-à-go-go-related gene (hERG) potassium channel (human, UniProt Q12809). The assay can be described thus: primary screen, population patch clamp on CHO cells stably expressing hERG.
human ether-à-go-go-related gene (hERG) potassium channel, sequence (Q12809 whole entry, looked up): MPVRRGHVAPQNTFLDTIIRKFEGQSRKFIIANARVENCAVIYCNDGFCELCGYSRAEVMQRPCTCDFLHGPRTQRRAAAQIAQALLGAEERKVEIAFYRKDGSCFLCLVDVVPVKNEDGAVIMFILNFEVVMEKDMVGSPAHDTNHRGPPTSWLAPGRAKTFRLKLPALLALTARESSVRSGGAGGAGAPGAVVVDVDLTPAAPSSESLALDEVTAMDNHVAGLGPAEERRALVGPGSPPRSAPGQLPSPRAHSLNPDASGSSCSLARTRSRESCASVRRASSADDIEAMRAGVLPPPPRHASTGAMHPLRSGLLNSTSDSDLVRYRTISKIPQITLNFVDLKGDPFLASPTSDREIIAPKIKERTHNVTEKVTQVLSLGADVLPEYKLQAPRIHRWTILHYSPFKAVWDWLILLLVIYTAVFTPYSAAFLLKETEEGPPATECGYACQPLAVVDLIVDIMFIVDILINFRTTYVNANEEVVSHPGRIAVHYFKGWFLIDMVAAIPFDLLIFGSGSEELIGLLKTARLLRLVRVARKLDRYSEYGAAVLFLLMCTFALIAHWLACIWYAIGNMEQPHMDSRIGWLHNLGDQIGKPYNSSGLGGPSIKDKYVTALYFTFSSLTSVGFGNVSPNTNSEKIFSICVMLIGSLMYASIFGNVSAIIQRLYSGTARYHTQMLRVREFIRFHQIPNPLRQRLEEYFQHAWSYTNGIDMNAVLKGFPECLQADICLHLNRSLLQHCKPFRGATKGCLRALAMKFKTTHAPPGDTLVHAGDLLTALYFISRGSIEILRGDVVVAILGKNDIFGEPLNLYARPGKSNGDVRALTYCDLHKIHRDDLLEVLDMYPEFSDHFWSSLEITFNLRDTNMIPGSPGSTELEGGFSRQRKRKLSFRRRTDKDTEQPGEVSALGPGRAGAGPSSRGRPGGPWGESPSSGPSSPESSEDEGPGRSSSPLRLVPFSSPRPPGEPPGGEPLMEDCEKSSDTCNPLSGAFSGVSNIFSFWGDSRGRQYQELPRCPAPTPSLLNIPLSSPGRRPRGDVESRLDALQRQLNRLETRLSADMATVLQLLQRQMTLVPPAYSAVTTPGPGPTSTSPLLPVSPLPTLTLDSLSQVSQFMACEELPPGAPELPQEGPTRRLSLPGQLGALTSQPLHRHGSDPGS
For the compound `Cc1ccsc1/C=N/n1c(=S)[nH]nc(C)c1=O`, the “hERG current change (%, negative = inhibition) at 1uM” value is recorded as 8.91%.

On to `CCCCc1ccc(S(=O)(=O)Nc2ccc(C)c(NS(C)(=O)=O)c2)cc1`, for which the “hERG current change (%, negative = inhibition) at 1uM” value was determined as 9.43%.

Regarding `O=C(N/C(=C\c1ccco1)C(=O)N1CCOCC1)c1ccccc1Cl`, the “hERG current change (%, negative = inhibition) at 1uM” value is listed as 12.9%.

On to `Cc1ccc(Nc2nnc(SCC(=O)Nc3cccc(S(=O)(=O)NC4=NCCCCC4)c3)s2)cc1`, for which the “hERG current change (%, negative = inhibition) at 1uM” value turned out to be 8.15%.

For `NC(=O)COc1ccc(/C=N\NC(=O)CC(=O)NCCc2ccccc2)cc1`, the “hERG current change (%, negative = inhibition) at 1uM” value is recorded as 18.4%.

As for `O=c1c2ccccc2nnn1CSc1nc2ccccc2[nH]1`, the “hERG current change (%, negative = inhibition) at 1uM” value is 0.482%.

Take `Cc1ccc(S(=O)(=O)N2CCC(C(=O)N3CCC[C@H]3C(=O)NCc3ccccc3)CC2)cc1`: the “hERG current change (%, negative = inhibition) at 1uM” value is given as 5.52%.

Consider `COc1ccc2c(c1)[C@H]1[C@H](CO2)[C@H](c2ccccc2)[C@]2(C)C(=O)N(CC3CCCO3)CC(=O)N12` (stereo partly drawn), for which the “hERG current change (%, negative = inhibition) at 1uM” value is recorded as 13.4%.

In the case of `C(=N\N1CCN(c2ccccn2)CC1)/c1ccccn1`, the “hERG current change (%, negative = inhibition) at 1uM” value is recorded as 16.5%.

As to `Cc1nn(-c2ccc(C(=O)O)cc2)c(C)c1Cl`, the “hERG current change (%, negative = inhibition) at 1uM” value is on record as 10.3%.

As to `CCCCC(=O)NCCc1ccc(S(N)(=O)=O)cc1`, the “hERG current change (%, negative = inhibition) at 1uM” value turned out to be 7.69%.

Regarding `CCCn1c(N)c(C(=O)CSc2nnc3n2CCCCC3)c(=O)[nH]c1=O`, the “hERG current change (%, negative = inhibition) at 1uM” value was 4.02%.

For the compound `CCOC(=O)C1=C(C)Nc2ccccc2N=C1NC(=O)Cc1ccc(Br)cc1`, the “hERG current change (%, negative = inhibition) at 1uM” value amounted to 16.4%.

On to `Cl.NCCc1nnc(SCC(N)=O)o1`, for which the “hERG current change (%, negative = inhibition) at 1uM” value stood at 17.7%.

Turning to `COC(=O)c1cn(NC(=O)CC2CCCCC2)c(=O)c2ccccc12`, the “hERG current change (%, negative = inhibition) at 1uM” value came out at 2.58%.

In the case of `Cc1ccccc1NC(=S)N1CCN(Cc2ccc3c(c2)OCO3)CC1`, the “hERG current change (%, negative = inhibition) at 1uM” value turned out to be 1.84%.

For `Cc1ccc(C(=O)NCCCNc2ccccc2[N+](=O)[O-])cc1`, the “hERG current change (%, negative = inhibition) at 1uM” value was -9.76%.

As for `CCc1c(C)sc(NC(=O)CC#N)c1C#N`, the “hERG current change (%, negative = inhibition) at 1uM” value is reported as 9.32%.

Take `CC(C)C(OC(=O)c1cc2c(s1)CCCCC2)C(=O)NC(N)=O` (stereo not drawn): the “hERG current change (%, negative = inhibition) at 1uM” value was 2%.

`Cc1cc(C)c(NC(=O)CSCc2nc3sc(C)c(C)c3c(=O)[nH]2)c(Cl)c1`: the “hERG current change (%, negative = inhibition) at 1uM” value was -4.67%.

On to `Cn1ncc2c(NNC(=O)c3ccc(O)cc3)ncnc21`, for which the “hERG current change (%, negative = inhibition) at 1uM” value worked out at 8.72%.

Take `COCCn1c(=O)[nH]c2cc(C(=O)N3CCN(c4ccc(Cl)cc4)CC3)ccc2c1=O`: the “hERG current change (%, negative = inhibition) at 1uM” value stood at 10.6%.

For `CN1C(=O)/C(=C2\SC(N3CCCCCC3)=NC2=O)c2ccccc21`, the “hERG current change (%, negative = inhibition) at 1uM” value is reported as 7.94%.

Take `CNC(=S)N1N=C2c3ccccc3CCC2C1c1ccccc1Cl` (stereo not drawn): the “hERG current change (%, negative = inhibition) at 1uM” value amounted to 9.81%.

Regarding `CCc1ccc2oc(C(=O)NCCc3ccc(S(N)(=O)=O)cc3)cc(=O)c2c1`, the “hERG current change (%, negative = inhibition) at 1uM” value came out at 8.05%.

For the compound `COc1ccc(C(=O)NCCCOc2cccc(NC(C)=O)c2)cc1`, the “hERG current change (%, negative = inhibition) at 1uM” value is on record as -4.65%.

Regarding `CCn1nnnc1-c1ccc(OC)c(S(=O)(=O)N2CCCCC2)c1`, the “hERG current change (%, negative = inhibition) at 1uM” value is reported as 2.43%.

With `Cc1cccc(OCC(=O)N=Nc2c(O)[nH]c3ccc([N+](=O)[O-])cc23)c1`, the “hERG current change (%, negative = inhibition) at 1uM” value came to 8.03%.

Turning to `Cc1cc(NC(=O)Cn2c(=O)oc3ccccc32)no1`, the “hERG current change (%, negative = inhibition) at 1uM” value was found to be 7.8%.

Take `O=C(NC1CCN(Cc2ccccc2)C1)c1cc(COc2ccc(F)cc2F)on1` (stereo not drawn): the “hERG current change (%, negative = inhibition) at 1uM” value was -11.9%.

For `CN(C)c1ccc(NC(N)=S)cc1`, the “hERG current change (%, negative = inhibition) at 1uM” value amounted to 5.42%.

On to `O=C(N/N=C/c1ccc(OC(=O)c2ccc([N+](=O)[O-])cc2)cc1)c1cccnc1`, for which the “hERG current change (%, negative = inhibition) at 1uM” value came to 14.2%.

With `C=CCn1c(SCC(=O)c2cc(C)n(C(C)COC)c2C)nc2sc(C)c(C)c2c1=O` (stereo not drawn), the “hERG current change (%, negative = inhibition) at 1uM” value is -17.3%.

In the case of `Cc1ccc2ccc(C(Nc3cccc(C(F)(F)F)c3)c3cccnc3)c(O)c2n1` (stereo not drawn), the “hERG current change (%, negative = inhibition) at 1uM” value is on record as 4.55%.

Turning to `CCOc1ccc2ccccc2c1/C=N/NC(=O)CNC(=O)Cc1ccccc1`, the “hERG current change (%, negative = inhibition) at 1uM” value was found to be 13.4%.

For the compound `O=C(CSc1nnc(-c2ccccc2)n1-c1ccccc1)c1ccc[nH]1`, the “hERG current change (%, negative = inhibition) at 1uM” value was found to be 15.3%.

As for `O=C(COc1ccc2ccccc2c1)Nc1nccs1`, the “hERG current change (%, negative = inhibition) at 1uM” value is listed as 3.47%.

For `Cc1nc(N2CCC(C)CC2)c2c(C)c(C(=O)Nc3ccc4c(c3)OCCO4)sc2n1`, the “hERG current change (%, negative = inhibition) at 1uM” value was 16%.

Regarding `Clc1ccc(C[n+]2cc(-c3ccccc3)n3c2CCC3)cc1.[Cl-]`, the “hERG current change (%, negative = inhibition) at 1uM” value is 7.34%.

With `COC(=O)c1sccc1NC(=O)Nc1ccccc1OC`, the “hERG current change (%, negative = inhibition) at 1uM” value came out at 0.31%.

Regarding `C/C(=N\NC(=S)NCCc1ccccc1)c1cccc(Br)c1`, the “hERG current change (%, negative = inhibition) at 1uM” value is 6.88%.

`COc1ccc(S(=O)(=O)NC2CC2)cc1C(=O)N1CCOCC1`: the “hERG current change (%, negative = inhibition) at 1uM” value was 10.8%.

In the case of `CCOCCCNC(=O)C(NC(=O)c1ccc(=O)[nH]c1)c1ccccc1` (stereo not drawn), the “hERG current change (%, negative = inhibition) at 1uM” value was 0.993%.

Take `COc1cc(C)c(C)cc1S(=O)(=O)N1CCCCC1c1cccnc1` (stereo not drawn): the “hERG current change (%, negative = inhibition) at 1uM” value stood at 8.66%.

For `COc1ccc(CNC(=O)C(C)OC(=O)c2cccs2)cc1` (stereo not drawn), the “hERG current change (%, negative = inhibition) at 1uM” value came out at 8.79%.

Consider `CCOC(=O)C1(CC2CC2)CCN(C(=O)c2cc(C)nc3ccc(CC)cc23)CC1`, for which the “hERG current change (%, negative = inhibition) at 1uM” value is given as -2.83%.

Consider `OCC1(CCOc2ccccc2)CCN(Cc2ccc3cccc(F)c3n2)CC1`, for which the “hERG current change (%, negative = inhibition) at 1uM” value is -36.4%.

Regarding `O=C(Nc1ccc(C(=O)O)cc1)/C(=C\c1ccc(F)cc1)NC(=O)c1ccco1`, the “hERG current change (%, negative = inhibition) at 1uM” value turned out to be 18.7%.

On to `O=C(O)c1ccc([N+](=O)[O-])c2c1C(=O)c1ccccc1C2=O`, for which the “hERG current change (%, negative = inhibition) at 1uM” value was found to be 17.8%.

In the case of `CN(C)C(=O)c1ccc(Oc2ccc(C(=O)N(C)C)cc2)cc1`, the “hERG current change (%, negative = inhibition) at 1uM” value is on record as -3.28%.

In the case of `Cc1cc(NC(=O)Nc2cccc(Cl)c2)n(C(C)(C)C)n1`, the “hERG current change (%, negative = inhibition) at 1uM” value is 11.3%.

In the case of `CCNC(=O)N1CCN(C(=O)NCC)CC1`, the “hERG current change (%, negative = inhibition) at 1uM” value came out at 21.4%.

`O=C(CSc1nc(-c2ccc(F)cc2)cc(C(F)(F)F)n1)NCc1cccs1`: the “hERG current change (%, negative = inhibition) at 1uM” value is reported as 18%.

Take `CNC(=O)NC(=O)CSc1nnc(-c2ccco2)n1-c1ccccc1`: the “hERG current change (%, negative = inhibition) at 1uM” value was determined as 14.7%.

`CCOC(=O)N(C)c1ccc(C(O)(C(F)(F)F)C(F)(F)F)cc1`: the “hERG current change (%, negative = inhibition) at 1uM” value is given as 16.4%.

As to `Cc1cc(Cl)ccc1C(=O)C1CCCN(C(=O)c2ccoc2)C1` (stereo not drawn), the “hERG current change (%, negative = inhibition) at 1uM” value is reported as 8.06%.

On to `CN=C(NC)SC1CC(=O)N(c2ccccc2)C1=O` (stereo not drawn), for which the “hERG current change (%, negative = inhibition) at 1uM” value stood at 4.58%.

Values taken from paper PMC4336329 (PLoS ONE, 2015).
